Assay results reported in PubChem BioAssay (NCI).
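Five compound concentrations were applied to cells in 96-well plates for 48 hours; endpoints were derived by simple linear interpolation of the resulting dose-response curve. The concentration for 50% growth inhibition is given as GI50. TGI is the concentration that stops growth completely.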

Each compound was assayed on NCI-H322M lung (assay: growth of human tumour cells (NCI), 48 h).

Point of comparison: `COc1ccc(Cn2cc3c(c2-c2cc(OC)c(OC)c(OC)c2)CCc2c(CN4CCCC4)noc2-3)cc1`, GI50 5540 nM. Against it:
- O=C(NNc1nc2cc(F)c(F)cc2n2c(CN3CC4CNCC4C3)ccc12)c1ncccn1 (stereo not drawn) — 3-fold lower, 1820 nM
- CSc1ccc(/C(=N/N=C(N)N)c2ccc(F)cc2)cc1 — 8.8-fold lower, 627 nM
- O=C1Nc2cc(OC(F)(F)F)ccc2Oc2ccc(-c3ccnc(N4CCNCC4)c3)cc21 — 3.6-fold lower, 1530 nM

Point of comparison: `O=C(NNc1nc2cc(F)c(F)cc2n2c(CN3CC4CNCC4C3)ccc12)c1ncccn1` (stereo not drawn), TGI 25600 nM. Against it:
- CSc1ccc(/C(=N/N=C(N)N)c2ccc(F)cc2)cc1 — 1.7-fold lower, 15100 nM
- COc1ccc(Cn2cc3c(c2-c2cc(OC)c(OC)c(OC)c2)CCc2c(CN4CCCC4)noc2-3)cc1 — higher, > 100000 nM
- O=C1Nc2cc(OC(F)(F)F)ccc2Oc2ccc(-c3ccnc(N4CCNCC4)c3)cc21 — 8.8-fold lower, 2900 nM
